# Measured values reported in PubChem BioAssay AID1030 (National Center for Advancing Translational Sciences (NCATS), 2008).
# Where “and” joins values, the source holds several entries; their conditions need not be identical. Identical values can stand only once. The campaign covered roughly 220,000 compounds. About 16,000 (7.3%) were called active. This list was built around the results that the source calls inconclusive (neither active nor inactive); the mix of calls is not that of the screen. Calls come from the whole dose curve; as a rule, active = well fitted inhibition curve with a large enough effect (not every such curve was filed as active); inconclusive = small, poorly fitted or top-dose-only effect, or another doubt; inactive = no such curve, though single readings can be large or run the other way. Potencies of inconclusive entries are doubtful fits and often do not repeat.
# Molecular target: Aldehyde dehydrogenase 1A1 (Homo sapiens) (UniProt P00352)
# Chain of UniProt P00352 (P00352 whole entry, looked up): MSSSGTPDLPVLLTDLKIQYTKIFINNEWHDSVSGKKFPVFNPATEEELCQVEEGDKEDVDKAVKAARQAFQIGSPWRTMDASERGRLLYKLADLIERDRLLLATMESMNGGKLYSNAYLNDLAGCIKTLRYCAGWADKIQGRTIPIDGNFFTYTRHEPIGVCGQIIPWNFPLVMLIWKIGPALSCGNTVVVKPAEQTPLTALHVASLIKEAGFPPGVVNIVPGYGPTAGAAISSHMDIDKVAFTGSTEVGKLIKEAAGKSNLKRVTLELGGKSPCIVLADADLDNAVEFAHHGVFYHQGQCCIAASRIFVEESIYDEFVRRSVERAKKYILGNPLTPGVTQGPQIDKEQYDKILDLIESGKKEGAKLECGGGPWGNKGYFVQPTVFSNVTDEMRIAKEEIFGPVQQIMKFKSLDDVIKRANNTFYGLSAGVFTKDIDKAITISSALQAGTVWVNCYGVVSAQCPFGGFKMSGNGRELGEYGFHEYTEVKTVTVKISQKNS
# Assay: qHTS Assay for Inhibitors of Aldehyde Dehydrogenase 1 (ALDH1A1);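 for activity, negative = inhibition: plate controls were no enzyme wells and a reference inhibitor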
# Conditions: Purified ALDH1A1, NADH fluorescence, propionaldehyde substrate; series mostly up to 75.3 µM; activity, negative = inhibition: at the top concentration
# Potency is the fitted concentration of half-maximal effect; tags give direction and shape of the fitted curve.
Structure (SMILES),Potency,"activity, negative = inhibition"
CCN(CCCNC(=O)c1ccc(N2CCCC2=O)cc1)c1cccc(C)c1,"inconclusive: 35.5 µM [inhibitor, single point]",
CCC(Oc1ccccc1)C(=O)Nc1nc2c(s1)C(=O)CC(C)(C)C2 (stereo unspecified),active: 12.6 µM,
COc1cc2cc3c4cc(OC)c(OC)cc4cc[n+]3c(C)c2cc1OC,"inconclusive: 7.94 µM [inhibitor, partial curve] and inconclusive: 28.2 µM [inhibitor, partial curve]",
Cc1ccc(Nc2nc3ccccc3n3nnnc23)cc1,"inconclusive: 20 µM [inhibitor, partial curve]",
COc1ccc(O[C@H]2C=C[C@@H](c3ccccc3)O[C@H]2COC(=O)CC/C(C)=N\OC[C@@H](O)COCc2ccco2)cc1,,inactive: -15.1% [at 13.5 µM]
S=C(NCCN1CCOCC1)N/N=C/c1ccccc1,,inactive: 9.13%
COc1ccc(C(=O)NC(=S)NCc2cccnc2)cc1[N+](=O)[O-],"inconclusive: 14.1 µM [inhibitor, partial curve]",
c1ccc(C[n+]2csc3ccccc32)cc1,active: 2.24 µM,
O=c1cnc2cncnc2n1Cc1ccccc1Cl,active: 3.55 µM,
CCn1c(-c2ccccc2)c(C(=O)CCl)c2ccccc21,active: 6.31 µM,
Cc1ccc(NC(=O)C2CC(=O)N(c3ccc4c5c(cccc35)CC4)C2)cc1 (stereo unspecified),"inconclusive: 39.8 µM [inhibitor, single point]",
COCc1cc(C)nc(SCC[N+](C)(C)CC(=O)Nc2cccc(C(F)(F)F)c2)c1C#N,active: 11.2 µM,
C=CCN=C1NN=C(c2cc(C)n(CCOC)c2C)CS1,"inconclusive: 39.8 µM [inhibitor, single point]",
CCc1cc[n+](/C(C(=S)Nc2cccc(C)c2)=C(/[O-])c2ccc(C)c([N+](=O)[O-])c2)cc1,"inconclusive: 12.6 µM [inhibitor, partial curve]",
CN1CCc2c(sc3nc(NN)n(Cc4ccccc4)c(=O)c23)C1,active: 31.6 µM,
C=C(C)c1cccc(C(C)(C)NC(=O)N(C)C2CCN(C)CC2)c1,,inactive: 2.65%
COc1cc(/C=N/Nc2cccc3cccnc23)cc(OC)c1O,,inactive: 0.107%
O=S(=O)(NCCCc1ccccc1)c1ccc(Cl)cc1,"inconclusive: 2.82 µM [inhibitor, full curve]",
O=C(Cc1cccc2ccccc12)NC(=S)Nc1cccc(C(=O)O)c1,,inactive: -6.67%
O=C1CN(C(=O)CNCc2ccccc2Cl)c2ccccc2N1,active: 20 µM,
Cc1ccc(S(=O)(=O)Cn2nnnc2C(C)N2CCN(C(=O)c3ccco3)CC2)cc1 (stereo unspecified),active: 25.1 µM,
Cc1[nH]c2ccccc2c1/C=C(/C#N)C(=O)NC(C)C,"inconclusive: 39.8 µM [inhibitor, single point]",
COC(=O)c1nn(-c2ccc(OC)cc2)c(=O)cc1Sc1ccc(C)cc1,"inconclusive: 22.4 µM [inhibitor, single point]",
CC(C)C1=NN(C(=O)c2cccnc2)C(O)(C(F)(F)F)C1 (stereo unspecified),"inconclusive: 28.2 µM [inhibitor, single point]",

Structure (SMILES),Potency,"activity, negative = inhibition"
CCN1C(=O)N[C@@H](c2ccccc2)C1=O,,inactive: 0.611% [at 20.9 µM]
CC1CCc2c(C(=O)Oc3cccc(-n4cnnn4)c3)csc2C1 (stereo unspecified),"inconclusive: 44.7 µM [inhibitor, single point]",
CCN(CC)CCN1C(=O)c2ccccc2NC1c1ccc(Br)cc1 (stereo unspecified),"inconclusive: 35.5 µM [inhibitor, partial curve]",
O=C(O)c1cc2nc(-c3cccs3)cc(C(F)(F)F)n2n1,"inconclusive: 35.5 µM [inhibitor, single point]",
CCOc1ccc(N/C=C/C(=O)c2ccc3ccccc3c2)c([N+](=O)[O-])c1,,inactive: -1.34%
COc1ccc(C(C(=O)NC2CCCC2)N(CCN(C)C)C(=O)c2snc(C(N)=O)c2N)cc1 (stereo unspecified),"inconclusive: 39.8 µM [inhibitor, single point]",
O=C1NC(c2ccccc2Cl)Nc2ccccc21 (stereo unspecified),"inconclusive: 28.2 µM [inhibitor, partial curve]",
CC(=O)Nc1cc(Br)ccc1O,,inactive: 2.51%
COCCn1c(-c2cccs2)nc2c(c(=O)c3ccccc3n2C)c1=O,"inconclusive: 39.8 µM [inhibitor, single point]",
Cc1ccc(OCC(O)Cn2c(=N)n(CCN3CCCCC3)c3ccccc32)cc1 (stereo unspecified),"inconclusive: 39.8 µM [inhibitor, single point]",
COc1ccc(C2C(C#N)=C(SCC(=O)Nc3ccc(C)cc3)NC3=C2C(=O)CC(C)(C)C3)cc1 (stereo unspecified),"inconclusive: 15.8 µM [inhibitor, partial curve]",
O=c1c(C(c2ccccc2)c2c(O)nc3n(c2=O)CCCS3)c(O)nc2n1CCCS2,"inconclusive: 31.6 µM [inhibitor, single point]",
CC(CCc1ccccc1)NC(=O)CN1CCN(Cc2ccccc2)C1=O (stereo unspecified),,inactive: -2.65%
CC1=C(C#N)C(/C=N/OCc2ccc(F)cc2Cl)CC(=O)N1 (stereo unspecified),"inconclusive: 25.1 µM [inhibitor, partial curve]",
CCN1C(=O)/C(=C/c2ccc(C)o2)N(C)C1=S,active: 1.58 µM,
COc1cc2cc(CN(CCO)S(=O)(=O)c3ccccc3)c(=O)[nH]c2cc1OC,"inconclusive: 28.2 µM [inhibitor, partial curve]",
C=CCNc1nc2c3ccccc3n(C(C)=O)c2s1,active: 28.2 µM,
O=C(c1ccccc1)N1CCN(C(=O)N2CCOCC2)CC1,,inactive: -13.1%
COc1ccccc1[C@H]1C(c2cccc(C)c2)=NN(c2ccccc2)[C@@H]1CO,"inconclusive: 31.6 µM [inhibitor, partial curve]",
COc1ccc(/C=C2\CCCC3C2=NN(C(=O)c2scnc2C)C3c2ccc(OC)c(OC)c2)cc1OC (stereo unspecified),"inconclusive: 39.8 µM [inhibitor, single point]",
CC(=O)OC1CC2C(C)(C)CCC(=O)[C@@]2(C)C2CC[C@@]3(C)C(c4ccoc4)OC(=O)C4OC43[C@]12C (stereo partly specified),,inactive: 1.67%
COc1ccc(-c2cc(C(F)(F)F)n3nc(C(=O)NCCN4CCOCC4)cc3n2)cc1,"inconclusive: 31.6 µM [inhibitor, partial curve]",
CCOc1ccc(N/C=C/C(=O)c2ccc(OC)cc2)c([N+](=O)[O-])c1,"inconclusive: 28.2 µM [inhibitor, partial curve]",
O=C(N=NC(=O)c1ccc2c(O)n(CC3CCCO3)c(O)c2c1)c1cccnc1 (stereo unspecified),"inconclusive: 14.1 µM [inhibitor, partial curve]",

Structure (SMILES),Potency,"activity, negative = inhibition"
O=C(N/C(=C\c1ccco1)C(=O)N1CCCC1)c1cccs1,,inactive: 3.21%
Cc1ccc(S(=O)(=O)N2CCN(C(=O)CCC(=O)NC3CCCc4ccccc43)CC2)cc1 (stereo unspecified),"inconclusive: 39.8 µM [inhibitor, single point]",
COc1ccccc1NC(=O)CSC1CC(=O)N(c2ccc3c(c2)OCO3)C1=O (stereo unspecified),active: 0.562 µM,
N#Cc1ccccc1OCC(=O)N1CCc2ccccc2C1,"inconclusive: 35.5 µM [inhibitor, single point]",
O=C(CCCCn1c(=O)[nH]c2ccsc2c1=O)NCCc1ccccc1,"inconclusive: 2.24 µM [inhibitor, partial curve]",
O=C1C=C(N2CCCCC2)C2(CCCCC2)O1,active: 10 µM,
N#CC1=C(Nc2ccccc2)SC=C(c2ccc(Br)cc2)N=C1N1CCOCC1,"inconclusive: 18.9 µM [inhibitor, partial curve]",
CN(C)S(=O)(=O)c1cccc(C(=O)Nc2cc(Cl)ccc2O)c1,"inconclusive: 35.5 µM [inhibitor, single point]",
O=C(CSC1=Nc2ccccc2C2CC=NN12)Nc1ccc2c(c1)OCO2 (stereo unspecified),"inconclusive: 35.5 µM [inhibitor, single point]",
CCNC(=S)N(Cc1cc2c(C)ccc(C)c2[nH]c1=O)C1CCCC1,"inconclusive: 39.8 µM [inhibitor, single point]",
COCCNc1ncnc2ccc(-c3ccccc3C)cc12,"inconclusive: 22.4 µM [inhibitor, partial curve]",
CCC(=O)Nc1ccc(C(=O)CSc2nnc(-c3ccc(O)cc3)n2CC2CCCO2)cc1OC (stereo unspecified),"inconclusive: 39.8 µM [inhibitor, single point]",
O=C(NCc1ccco1)c1cccnc1-c1nc2ccccc2s1,active: 8.91 µM,
CCCN(CCC)CCCNC(=S)Nc1ccc2nc3n(c(=O)c2c1)CCCCC3,,inactive: -5.86%
Cc1ccc(NCC(=O)Nc2ccc(Br)cc2)cc1F,"inconclusive: 31.6 µM [inhibitor, single point]",
Cc1cccc(OCc2n[nH]c(=S)n2C2CCCCC2)c1,"inconclusive: 10 µM [inhibitor, partial curve, poor fit]",
CCOc1cccc(C(=O)NC(=S)Nc2ccc(Cl)cc2C(=O)O)c1,"inconclusive: 25.1 µM [inhibitor, partial curve]",
C=C(C)c1cccc(C(C)(C)NC(=O)NCc2ccncc2)c1,"inconclusive: 39.8 µM [inhibitor, single point]",
COc1ccc(-c2nnn(Cc3nc(N)nc(N4CCCCC4)n3)n2)cc1,active: 0.562 µM,
CCOC(=O)c1cnc2ccc(OCC)cc2c1N1CCN(c2ccccc2OC)CC1,"inconclusive: 39.8 µM [inhibitor, single point]",
CCN(CC)C(=O)C(C)OC(=O)COc1ccc(Cl)cc1C (stereo unspecified),,inactive: 6.49%
CC(=O)C1=C(O)C(=O)N(Cc2cccnc2)C1c1ccc(O)cc1 (stereo unspecified),"inconclusive: 39.8 µM [inhibitor, single point]",
CCN1C(=O)N(C(C)=O)C2C1N(C(C)=O)C(=O)N2C(C)=O (stereo unspecified),,inactive: 3.8%
